# Counter-ions that a name gives are not always drawn. This is one part of the list. Many values rest on one well or one pass, so single values are uncertain.
# Assays:
# Experiment in all cases: area under viability curve (10 nM-1 µM), viability relative to solvent or trametinib-only control (AUC (arbitrary, % viability x concentration range)); higher = less growth inhibition (more viable cells)
# SJNB8 = details: 72 h compound exposure (96 h after seeding) h; trametinib co-treatment 0 µM
# Method: (§1)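 Four neuroblastoma cell lines (KCNR, SKNBE, SJNB8, SKNAS) were seeded in 384-well plates. At 24 h, 1 µM trametinib or DMSO was added, followed by library compounds at 10 nM, 100 nM and 1 µM. Viability was read by MTT at 96 h and normalised to solvent-treated cells (DMSO arm) or to trametinib-only cells (trametinib arm). The area under the 3-point viability curve was computed in GraphPad Prism; units are as given (approx. 100000 = no effect).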
# SKNAS = details: 72 h compound exposure (96 h after seeding) h
# Method: as §1
# SKNBE = details: 72 h compound exposure (96 h after seeding) h
# Method: as §1
# 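Note: KCNR is a neuroblastoma cell line carrying an ALK mutation, in this DMSO arm without trametinib, viability was normalised to solvent-treated cells.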
Structure (SMILES),area under viability curve (SJNB8),area under viability curve (SKNAS; trametinib co-treatment 0 µM),area under viability curve (SKNAS; trametinib co-treatment 1 µM),area under viability curve (SKNBE; trametinib co-treatment 0 µM),area under viability curve (SKNBE; trametinib co-treatment 1 µM)
CC(C)C[C@H](NC(=O)[C@@H](Cc1cccc2ccccc12)NC(=O)[C@H](Cc1ccc(O)cc1)NC(=O)[C@H](CO)NC(=O)[C@H](Cc1c[nH]c2ccccc12)NC(=O)[C@H](Cc1cnc[nH]1)NC(=O)[C@@H]1CCC(=O)N1)C(=O)N[C@@H](CCCNC(=N)N)C(=O)N1CCC[C@H]1C(=O)NCC(N)=O [Nafarelin acetate],78600,56800,97300,100000,99500
Cc1cccc(Oc2nc3c(C)cccn3c(=O)c2C=C(C#N)c2nc3ccccc3s2)c1,91300,90100,103000,88200,96900
CC(=O)O[C@H]1C(=O)[C@@]2(C)[C@H]([C@H](OC(=O)c3ccccc3)[C@]3(O)C[C@H](OC(=O)[C@H](O)[C@@H](NC(=O)c4ccccc4)c4ccccc4)C(C)=C1C3(C)C)[C@]1(OC(C)=O)CO[C@@H]1C[C@@H]2O [Paclitaxel],30200,28600,21800,32400,10400
CCNC(=O)[C@@H]1CCCN1C(=O)[C@H](CCCNC(=N)N)NC(=O)[C@H](CC(C)C)NC(=O)[C@@H](COC(C)(C)C)NC(=O)[C@H](Cc1ccc(O)cc1)NC(=O)[C@H](CO)NC(=O)[C@H](Cc1c[nH]c2ccccc12)NC(=O)[C@H](Cc1cnc[nH]1)NC(=O)[C@@H]1CCC(=O)N1 [Buserelin acetate],92400,112000,91300,109000,104000
Nc1c(O)cc(O)cc1C=Cc1ccc(O)cc1 [Aminoresveratrol sulfate],88000,103000,102000,86300,91900
Cc1ccc2nc(N)[nH]c(=O)c2c1Sc1ccncc1 [Nolatrexed 2HCl],81200,115000,97500,88600,85500
C[C@@H]1CCN(C(=O)CC#N)C[C@@H]1N(C)c1ncnc2[nH]ccc12 [Tofacitinib],78900,86000,91200,105000,95000
COCC[n+]1c2c(n(Cc3cnccn3)c1C)C(=O)c1ccccc1C2=O [Sepantronium bromide],62900,10400,4840,71300,10300
Cc1cn([C@H]2C[C@H](O)[C@@H](CO)O2)c(=O)nc1N [2'-Deoxy-5-methylcytidine],104000,109000,103000,97400,97300
Cc1ccc(NC(=O)c2ccc(CN3CCN(C)CC3)cc2)cc1Nc1nccc(-c2cccnc2)n1 [Imatinib base],96600,118000,104000,92400,90200
N[C@@]1(C(=O)O)CS(=O)(=O)[C@H]2[C@H](C(=O)O)[C@H]21,112000,114000,108000,118000,103000
O=C(CCCCCCC(=O)NO)NO [Suberoyl bis-hydroxamic acid],91200,107000,95700,113000,101000
COc1ncc(-c2ccc3nccc(-c4ccnnc4)c3c2)cc1NS(=O)(=O)c1ccc(F)cc1F [Omipalisib],51100,56500,40600,18700,4330
CCN1CCN(c2ccc(Nc3cc(N(C)C(=O)Nc4c(Cl)c(OC)cc(OC)c4Cl)ncn3)cc2)CC1 [Infigratinib],70800,107000,99000,101000,102000
CC(C)(F)C[C@H](N[C@@H](c1ccc(-c2ccc(S(C)(=O)=O)cc2)cc1)C(F)(F)F)C(=O)NC1(C#N)CC1 [Odanacatib],88900,96200,103000,108000,103000
CC(=O)O[C@H]1CC[C@@]2(C)C(=CC[C@@H]3[C@@H]2CC[C@]2(C)C(c4cccnc4)=CC[C@@H]32)C1 [Abiraterone acetate],103000,116000,96100,102000,97000
Clc1ccc(Nc2nnc(Cc3ccncc3)c3ccccc23)cc1 [Vatalanib HCl],82300,82000,99800,92600,101000
Cc1[nH]c(/C=C2\C(=O)Nc3ccc(S(=O)(=O)N(C)c4cccc(Cl)c4)cc32)c(C)c1C(=O)N1CCN(C)CC1,67700,101000,99100,91400,97700
CCNC(=O)[C@@H]1CCCN1C(=O)[C@H](CCCN=C(N)N)NC(=O)[C@H](CC(C)C)NC(=O)[C@@H](C)NC(=O)[C@H](Cc1ccc(O)cc1)NC(=O)[C@H](CO)NC(=O)[C@H](Cc1c[nH]c2ccccc12)NC(=O)[C@H](Cc1cnc[nH]1)NC(=O)[C@@H]1CCC(=O)N1 [Alarelin acetate],94900,103000,101000,106000,97800
Cc1[nH]c2ccccc2c1CCNCc1ccc(/C=C/C(=O)NO)cc1 [Panobinostat],31500,13000,4440,6840,1790
CNNCc1ccc(C(=O)NC(C)C)cc1 [Procarbazine HCl],79600,77100,101000,98900,95800
COc1cccc2c1C(=O)c1c(O)c3c(c(O)c1C2=O)C[C@@](O)(C(C)=O)C[C@@H]3O[C@H]1C[C@H](N)[C@H](O)[C@H](C)O1 [Daunorubicin HCl],72000,46200,41500,46700,16000
CCCC(CCC)C(=O)NO [Valproic acid hydroxamate],86400,111000,95900,111000,97300
O=C(/C=C/C#Cc1cccc(NS(=O)(=O)c2ccccc2)c1)NO [Oxamflatin],68000,70900,44300,65500,38800
CC[C@]1(O)C[C@H]2CN(CCc3c([nH]c4ccccc34)[C@@](C(=O)OC)(c3cc4c(cc3OC)N(C=O)[C@H]3[C@@](O)(C(=O)OC)[C@H](OC(C)=O)[C@]5(CC)C=CCN6CC[C@]43[C@@H]65)C2)C1 [Vincristine sulfate],26800,21300,17700,22500,2980

# — the supplement of paper PMC9990464
